Measured values published in the supplement of paper PMC8728848.
This is one part of the list.

Key:
Experiment in all cases: glycan array binding signal (z-score within array); higher = stronger binding
Conditions in all cases: glycan notation: IUPAC condensed, linker removed
[1] = biological target: Gal(b1-3)GalNAc(b1-3)Gal(a1-4)Gal(b1-4)Glc
How it was run: (§1)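 The binding signal is a Z-score computed within each array. Data were drawn from 3228 arrays in the Consortium for Functional Glycomics database, restricted to those with a known protein sequence. Scores were averaged over arrays of the same protein sequence at different concentrations or buffers, and over linkers, and negative values can be taken as non-binding.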

[2] = biological target: Gal(b1-3)GalNAc(b1-4)Gal(b1-4)Glc
How it was run: as §1

[3] = biological target: Gal(b1-3)GalNAc(b1-4)[Neu5Ac(a2-3)]Gal(b1-4)Glc
How it was run: as §1

[4] = biological target: Gal(b1-3)GlcNAc
How it was run: as §1

[5] = biological target: Gal(b1-3)GlcNAc(a1-3)Gal(b1-4)GlcNAc
How it was run: as §1

[6] = biological target: Gal(b1-3)GlcNAc(a1-6)Gal(b1-4)GlcNAc
How it was run: as §1

[7] = biological target: Gal(b1-3)GlcNAc(b1-2)Man
How it was run: as §1

[8] = biological target: Gal(b1-3)GlcNAc(b1-2)Man(a1-3)[Gal(b1-3)GlcNAc(b1-2)Man(a1-6)]Man(b1-4)GlcNAc(b1-4)GlcNAc
How it was run: as §1

[9] = biological target: Gal(b1-3)GlcNAc(b1-2)Man(a1-3)[Gal(b1-3)GlcNAc(b1-2)Man(a1-6)]Man(b1-4)GlcNAc(b1-4)[Fuc(a1-6)]GlcNAc
How it was run: as §1

[10] = biological target: Gal(b1-3)GlcNAc(b1-2)Man(a1-3)[GlcNAc(b1-4)][Gal(b1-3)GlcNAc(b1-2)Man(a1-6)]Man(b1-4)GlcNAc(b1-4)GlcNAc
How it was run: as §1

[11] = biological target: Gal(b1-3)GlcNAc(b1-2)[Gal(b1-3)GlcNAc(b1-6)]Man(a1-6)[Gal(b1-3)GlcNAc(b1-2)Man(a1-3)]Man(b1-4)GlcNAc(b1-4)GlcNAc
How it was run: as §1

[12] = biological target: Gal(b1-3)GlcNAc(b1-3)Gal(b1-3)GlcNAc
How it was run: as §1

[13] = biological target: Gal(b1-3)GlcNAc(b1-3)Gal(b1-4)Glc
How it was run: as §1

[14] = biological target: Gal(b1-3)GlcNAc(b1-3)Gal(b1-4)GlcNAc
How it was run: as §1

[15] = biological target: Gal(b1-3)GlcNAc(b1-3)Gal(b1-4)GlcNAc(b1-2)Man(a1-3)[Gal(b1-3)GlcNAc(b1-3)Gal(b1-4)GlcNAc(b1-2)Man(a1-6)]Man(b1-4)GlcNAc(b1-4)GlcNAc
How it was run: as §1

[16] = biological target: Gal(b1-3)GlcNAc(b1-3)Gal(b1-4)GlcNAc(b1-2)[Gal(b1-3)GlcNAc(b1-3)Gal(b1-4)GlcNAc(b1-6)]Man(a1-6)[Gal(b1-3)GlcNAc(b1-3)Gal(b1-4)GlcNAc(b1-2)Man(a1-3)]Man(b1-4)GlcNAc(b1-4)[Fuc(a1-6)]GlcNAc
How it was run: as §1

[17] = biological target: Gal(b1-3)GlcNAc(b1-3)Gal(b1-4)GlcNAc(b1-3)Gal(b1-4)GlcNAc(b1-2)[Gal(b1-3)GlcNAc(b1-3)Gal(b1-4)GlcNAc(b1-3)Gal(b1-4)GlcNAc(b1-6)]Man(a1-6)[Gal(b1-3)GlcNAc(b1-3)Gal(b1-4)GlcNAc(b1-3)Gal(b1-4)GlcNAc(b1-2)Man(a1-3)]Man(b1-4)GlcNAc(b1-4)[Fuc(a1-6)]GlcNAc
How it was run: as §1

[18] = biological target: Gal(b1-3)GlcNAc(b1-3)Gal(b1-4)GlcNAc(b1-6)[Gal(b1-3)GlcNAc(b1-3)]Gal(b1-4)Glc
How it was run: as §1

[19] = biological target: Gal(b1-3)GlcNAc(b1-3)Gal(b1-4)[Fuc(a1-3)]GlcNAc
How it was run: as §1

[20] = biological target: Gal(b1-3)GlcNAc(b1-3)Gal(b1-4)[Fuc(a1-3)]GlcNAc(b1-6)[Gal(b1-3)GlcNAc(b1-3)]Gal(b1-4)Glc
How it was run: as §1

[21] = biological target: Gal(b1-3)GlcNAc(b1-3)GalNAc
How it was run: as §1

[22] = biological target: Gal(b1-3)GlcNAc(b1-6)Gal(b1-4)GlcNAc
How it was run: as §1

[23] = biological target: Gal(b1-3)GlcNAc(b1-6)GalNAc
How it was run: as §1

[24] = biological target: Gal(b1-3)GlcNAc(b1-6)[Gal(b1-3)]GalNAc
How it was run: as §1

[25] = biological target: Gal(b1-3)GlcNAc6S
How it was run: as §1

[26] = biological target: Gal(b1-3)[Fuc(a1-4)]GlcNAc
How it was run: as §1

[27] = biological target: Gal(b1-3)[Fuc(a1-4)]GlcNAc(b1-2)Man
How it was run: as §1

[28] = biological target: Gal(b1-3)[Fuc(a1-4)]GlcNAc(b1-2)Man(a1-3)[Gal(b1-3)[Fuc(a1-4)]GlcNAc(b1-2)Man(a1-6)]Man(b1-4)GlcNAc(b1-4)[Fuc(a1-6)]GlcNAc
How it was run: as §1

[29] = biological target: Gal(b1-3)[Fuc(a1-4)]GlcNAc(b1-3)Gal(b1-3)[Fuc(a1-4)]GlcNAc
How it was run: as §1

[30] = biological target: Gal(b1-3)[Fuc(a1-4)]GlcNAc(b1-3)Gal(b1-4)[Fuc(a1-3)]GlcNAc
How it was run: as §1

[31] = biological target: Gal(b1-3)[Fuc(a1-4)]GlcNAc(b1-6)GalNAc
How it was run: as §1

[32] = biological target: Gal(b1-3)[GlcNAc(b1-6)]GalNAc
How it was run: as §1

[33] = biological target: Gal(b1-3)[Neu5Ac(a2-6)]GalNAc
How it was run: as §1

[34] = biological target: Gal(b1-3)[Neu5Ac(a2-6)]GlcNAc(b1-4)Gal(b1-4)Glc
How it was run: as §1

[35] = biological target: Gal(b1-3)[Neu5Ac(b2-6)]GalNAc
How it was run: as §1

[36] = biological target: Gal(b1-4)Gal
How it was run: as §1

[37] = biological target: Gal(b1-4)GalNAc(a1-3)[Fuc(a1-2)]Gal(b1-4)GlcNAc
How it was run: as §1

[38] = biological target: Gal(b1-4)GalNAc(b1-3)[Fuc(a1-2)]Gal(b1-4)GlcNAc
How it was run: as §1

B1: FimD (Bordetella pertussis) (protein)
chain: MPARVISFCGAALAVWAGLAVQPAMAVDPPVDCGRALGLHFWSSASLISDQTPDGTLIGKPVVGRSLLSKSCKVPDDIKEDLSDNHDGEPVDIVLELGSNYKIRPQSYGHPGIVVDLPFGSTEETGIAIYIDFGSSPMQKVGERQWLYPQKGEVLFDVLTINGDNAEVRYQAIKVGPLKRPRKLVLSQFPNLFTYKWVFMRGTSQERVLAQGTIDTDVATSTIDLKTCRYTSQTVSLPIIQRSALTGVGTTLGMTDFQMPFWCYGWPKVSVYMSATKTQTGVDGVALPATGQAAGMASGVGVQLINGKTQQPVKLGLQGKIALPEAQQTESATFSLPMKAQYYQTSTSTSAGKLSVTYAVTLNYD
- glycan array binding signal (z-score) [1]: -0.115
- glycan array binding signal (z-score) [2]: 0.279
- glycan array binding signal (z-score) [3]: -0.254
- glycan array binding signal (z-score) [4]: 0.06
- glycan array binding signal (z-score) [5]: -0.403
- glycan array binding signal (z-score) [6]: -0.163
- glycan array binding signal (z-score) [7]: 0.008
- glycan array binding signal (z-score) [8]: 1.11
- glycan array binding signal (z-score) [9]: 0.621
- glycan array binding signal (z-score) [10]: 0.431
- glycan array binding signal (z-score) [11]: 0.171
- glycan array binding signal (z-score) [12]: -0.326
- glycan array binding signal (z-score) [13]: -0.264
- glycan array binding signal (z-score) [14]: -0.443
- glycan array binding signal (z-score) [15]: -0.14
- glycan array binding signal (z-score) [16]: 1.82
- glycan array binding signal (z-score) [17]: 0.259
- glycan array binding signal (z-score) [18]: -0.313
- glycan array binding signal (z-score) [19]: -0.323
- glycan array binding signal (z-score) [20]: -0.585
- glycan array binding signal (z-score) [21]: -0.464
- glycan array binding signal (z-score) [22]: -0.202
- glycan array binding signal (z-score) [23]: -0.524
- glycan array binding signal (z-score) [24]: -0.165
- glycan array binding signal (z-score) [25]: -0.022
- glycan array binding signal (z-score) [26]: -0.227
- glycan array binding signal (z-score) [27]: 0.741
- glycan array binding signal (z-score) [28]: -0.112
- glycan array binding signal (z-score) [29]: -0.301
- glycan array binding signal (z-score) [30]: 0.034
- glycan array binding signal (z-score) [31]: 2.73
- glycan array binding signal (z-score) [32]: -0.015
- glycan array binding signal (z-score) [33]: -0.156
- glycan array binding signal (z-score) [34]: -0.518
- glycan array binding signal (z-score) [35]: -0.528
- glycan array binding signal (z-score) [36]: -0.083
- glycan array binding signal (z-score) [37]: -0.051
- glycan array binding signal (z-score) [38]: -0.493
